# Measured values published in the supplement of paper PMC10338343.
# ± gives the standard deviation. Whole data set: some 6,600 sequences, median “pre-steady-state target cleavage rate” near 0.07, cut for the highest 2% near 0.72. The list shows a part of the results, in another mix than the full data.
# System: MIWI (PIWIL1) piRISC loaded with Kctd7 piRNA (30 nt)
# Assay: pre-steady-state target cleavage rate (min^-1); MIWI and MILI are mouse PIWI proteins and EfPiwi is from a freshwater sponge; tags in brackets are library labels; higher = faster piRNA-guided slicing of the target
# Details: guide: Kctd7 piRNA 5'p-UGUUAAUCUCUCAGAGAAGGUGACAGUGAU; auxiliary factor: 500 nM mouse GTSF1
# In short: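 Cleave-'n-Seq: 1 nM active affinity-purified piRISC with one synthetic guide and 0.1 nM transcribed, DNA-blocked target RNA library were mixed, with or without 500 nM GTSF1 partner protein, in HEPES–potassium acetate buffer at 33 °C for 0–8 or 0–960 min. Uncleaved targets were sequenced and normalised to depth and to weakly complementary targets, three trials were pooled, and k3 was capped at 0.0001 min^-1. The pre-steady-state cleavage rate was fitted […].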
row,Sequence,pre-steady-state target cleavage rate
1,UAGUCUGUCACCUUCUCUGAGAGAUUUAGA,0.0734 ± 0.028
2,UAGUCUGUCACCUUCUCUGAGAGAUAACA,0.116 ± 0.02
3,UAGUGACACCCCUUCUCUGAGAGAUUAACA,0.426 ± 0.042
4,UAGUGUGUCACCUUCUCUGAGAGAAAAAGA,0.0283 ± 0.011
5,AUCACUGUCACCUUGUCUGAGUGAUUAACA,0.048 ± 0.0066
6,UAGUGACACACCUUCUGUGAGAGAAUAACA,0.0506 ± 0.0083
7,UACACUGUCACCUUCUCAGUGAGAUUAACA,0.0229 ± 0.006
8,UACAGUGUCUCCUUCUCUGAGAGAUUAACA,0.499 ± 0.035
9,UAGUGAGUCACCUUCUCUGAGAGAUUAAUCA,0.408 ± 0.044
10,UAGUCUGACACCUUCUCUGAGAGAUUAUGA,0.033 ± 0.0063
11,UAGUGACACUGCUUCUCUGAGAGAUAUUGA,< 0.0001
12,UAGACUGUCACGUACUCUGAGAGAUUAACA,0.293 ± 0.032
13,UAGUGUGUCACCUUCUCUGAGAGAAUUUGA,0.124 ± 0.033
14,UACACAGUCACCUUCUGUGAGAGAUUAACA,0.376 ± 0.024
15,AUCACUGUCACCUACUCUGUGAGAUUAACA,0.219 ± 0.014
16,UUCACUGUCACCUUCUCUGUCAGAUAUUGA,0.0146 ± 0.0073
17,UAGUGAGUCACCUUCACUGAGUGAUUAACA,0.0231 ± 0.0038
18,AUGACUGUCACCUUCUCUGAGAGAUUUUGA,0.0138 ± 0.0047
19,UUCACAGUCACCUUCUCUCAGAGAUUAACA,0.126 ± 0.012
20,UACACUGUCACCUUCUCUGUGAGAUAUUGA,0.00592 ± 0.004
21,UAGACUGUGACCUUCUCAGAGAGAUUAACA,0.193 ± 0.012
22,UAGUGUGUCUGGUUCUCUGAGAGAUUAACA,0.0198 ± 0.003
23,UACACUGUCACCUACUCUGAGAGUUUAACA,0.235 ± 0.039
24,UUCAGUGUCACCUUCUGUGAGAGAUUAACA,0.495 ± 0.025

row,Sequence,pre-steady-state target cleavage rate
1,UAGACUGUCACCUUGUCUGAGACAUUAACA,0.195 ± 0.031
2,UAGUCUGUCACCUUGUCUGUGAGAUUAACA,0.111 ± 0.011
3,UAGUGUGGUCACCUUCUCUGAGAGAUUAACA,0.636 ± 0.041
4,UACACUGUCACCUUCUCACUGAGAUUAACA,0.00822 ± 0.0052
5,UAGUGACAGACCUUCUCAGAGAGAUUUACA,0.00727 ± 0.004
6,UUCACUGUCACCUUCGCUGAGAGAUUAACA,0.574 ± 0.05
7,UACACUGUCACCAAGUCUGAGAGAUUAUGA,0.00543 ± 0.0052
8,UAGUGAGUCACCUACUCUGAGAGAAUAACA,0.227 ± 0.045
9,UAGUGACAGAACUUCUCUGAGAGAUUAACA,0.0127 ± 0.0037
10,UACACUGUCACCUUCUCUGAGAGAAUUUGA,0.247 ± 0.067
11,UAGACUGUCACCUUCUCUGACACAUUAACA,0.00898 ± 0.0018
12,AUCAGUGUCACCUUCUCUGAGAGAAUAACA,0.342 ± 0.06
13,UAGUCUGUCACCUUCUCGGAGAGAUUAACA,0.254 ± 0.018
14,UAGUCUCUCUCCUUCUCUGAGAGAUUAACA,0.0631 ± 0.0077
15,UAGUGACUCGCCUUCUCUGAGAGAUUAACA,0.262 ± 0.033
16,UAGUGACUCAGCUUCUCUGAGUGAUUAACA,0.0122 ± 0.0042
17,UACACUGUCACCAUCUCUGAGAGAUUUACA,0.265 ± 0.027
18,UAGUGACUCACCAUCUCUGAGAGAAUAACA,0.0242 ± 0.0062
19,UAGUCUGUCAGGUUCUCUGAGAGAUUAAGA,0.0112 ± 0.0039
20,UAGUGACACAGCUUCUCUGACAGAUUAACA,0.0208 ± 0.0042
21,AUCACUGUCUCCUUCUCUGACAGAUUAACA,0.311 ± 0.023
22,UAGUGUGUCACCUAUCUCUGAGAGAUUAACA,0.329 ± 0.033
23,UACACUGUCACCUUCUCUGAGACUAUAAGA,0.00356 ± 0.0034
24,UAGUGACUCACCUUCUGUGAGAGAUUAUGA,0.013 ± 0.0041

row,Sequence,pre-steady-state target cleavage rate
1,UACACUGUCACCUUCUGAGAGAGAUUUUGA,0.0616 ± 0.019
2,UAGUGAGUCACCUUCUCUGAGAGAUUAAGA,0.235 ± 0.03
3,UAGUCUGUCACCUUCUCUGACAGAUAAACA,0.0101 ± 0.0041
4,UACACUGACAGCUUCUCUGAGAGAUUAACA,0.573 ± 0.041
5,AUCACUGUCACCUUGUCUGAGAGAUUAUCA,0.523 ± 0.08
6,UAGACUGUCACCUUCUCAGAGAGAUUUACA,0.202 ± 0.027
7,AUCACUGUCAGCUUCUCUGAGAGAUUAAGA,0.107 ± 0.016
8,UUCACUGUCACCUUCUCUGAGAGAUAAACA,0.337 ± 0.039
9,UAGUCUGUCACCUUCUCUGAGAAUUAACA,0.0266 ± 0.014
10,UAGUGAGUCACCUUCUCAGAGAGAUUAUCA,0.146 ± 0.028
11,UAGUGAGUCACCUUCACUGAGAGUUUAACA,0.0872 ± 0.022
12,UUCACGGUCACCUUCUCUGAGAGAUUAACA,0.687 ± 0.032
13,UACACUGUCACGUUGUCUGAGAGAUUAACA,0.35 ± 0.026
14,UAGUGAGUCACCUUCUCUGAGAGAUUUUGA,0.21 ± 0.053
15,AUCACUGUCACCUUGUCUGAGAGAAUAACA,0.377 ± 0.098
16,UAGUGACAGACCAUCUCUGUGAGAUUAACA,0.0035 ± 0.0021
17,UAGUGUGUCACCUUCUCUCAGAGUUUAACA,0.0491 ± 0.0094
18,UAGUGAGACACCAUCUCUGAGAGAUUAACA,0.337 ± 0.028
19,UACACUGUCACACUUCUCUGAGAGAUUAACA,0.544 ± 0.023
20,UUGACUGUCACCUUCUCUGAGAGAUAAACA,0.359 ± 0.036
21,UACACUGUCACCUUCUCUGAGAGAUAAUCA,0.0879 ± 0.02
22,UAGUGACACACCUACUCAGAGAGAUUAACA,0.0388 ± 0.011
23,AUCACUGUCACCUUCACUGAGAGAUUAUGA,0.13 ± 0.029
24,UUCACAGUCACCUUCUCUGAGAGAUUAUCA,0.242 ± 0.039
